{
  "source": "the supplement of paper PMC11417369",
  "note": "± gives the standard deviation of the averaged measurements. The list shows a part of the results.",
  "data": [
    {"system": "PfAP2-EXP AP2 domain (GST-tagged)", "test": "gcPBM binding intensity (ln(normalized median fluorescence intensity)); higher = stronger DNA binding", "method_in_brief": "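For binding intensity, the highest Masliner-normalised natural-log median intensity across replicate spots of either probe orientation was taken. Protein bound to the array was stained with Alexa488 anti-GST antibody and scanned at 488 nm. The protein, GST-tagged P. falciparum DNA-binding domains from E. coli at about 25 μg on average, had been applied for 1 h to an Agilent 4 × 180k array of primer-extended double-stranded 36-bp intergenic genomic probes and negative controls.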", "values": [
      {"sequence": "ATATGTATATATAAGGTGCAGAAAGGTGGGCAAAAG", "gcPBM binding intensity (ln)": "9.62 ± 0.18"},
      {"sequence": "TCATATATTTTAATATGTACACATTTTTTTGGTATA [XGTACX_site8695]", "gcPBM binding intensity (ln)": "8.54 ± 0.36"},
      {"sequence": "TTTTTCTTTATTAGCACACATAATATTATATATGTG [CACACA_site2629]", "gcPBM binding intensity (ln)": "8.62 ± 0.22"},
      {"sequence": "TACAGACTAAAATACACACACACACGCACATATATA [CACACA_site7875]", "gcPBM binding intensity (ln)": "8.73 ± 0.45"},
      {"sequence": "AAATAGAGAAATACAAGTACATATCAAACCAATATA [XGTACX_site1192]", "gcPBM binding intensity (ln)": "8.6 ± 0.43"},
      {"sequence": "CTTTTGTCATTCTTTTGTACACAGTTTGAAATATGT [XGTACX_site1457]", "gcPBM binding intensity (ln)": "8.9 ± 0.31"},
      {"sequence": "ATAATAAATAAATAATGTACATATGAAAGAATAAAT [XGTACX_site8355]", "gcPBM binding intensity (ln)": "9.06 ± 0.45"},
      {"sequence": "ATAAAAAAGAAACAAACACACATACATACAAACAAA [CACACA_site4256]", "gcPBM binding intensity (ln)": "8.9 ± 0.51"},
      {"sequence": "ATATTTGCATGTGGTAGTACATAACATTCTTTTACA [XGTACX_site8194]", "gcPBM binding intensity (ln)": "9.12 ± 0.25"},
      {"sequence": "ATATCTTATAATACGGTGCACTTGACATGAACAACT [GTGCAC_site9987]", "gcPBM binding intensity (ln)": "9.54 ± 0.38"},
      {"sequence": "ACATATTATATATGTGTGCACATATATATATATTTA [GTGCAC_site9591]", "gcPBM binding intensity (ln)": "8.47 ± 0.13"},
      {"sequence": "CTTCAATTAAAATTCACACATATAAATTAAAATATT [CACACA_site6129]", "gcPBM binding intensity (ln)": "8.2 ± 0.3"},
      {"sequence": "ATATATAATTAATTTTGTACACATAAAAAAAAAAAT [XGTACX_site6647]", "gcPBM binding intensity (ln)": "8.59 ± 0.42"},
      {"sequence": "AGAGAGAAAGCTATAACATGCAACAATTTTTTGAAA [TGCATGCA_site514]", "gcPBM binding intensity (ln)": "8.66 ± 0.44"},
      {"sequence": "AAATGACATTTCAAAAGTACATATTTAATTAATTAA [XGTACX_site2919]", "gcPBM binding intensity (ln)": "8.29 ± 0.45"},
      {"sequence": "TTTATATATATAATATGTACACATAATAATAATACA [XGTACX_site4862]", "gcPBM binding intensity (ln)": "8.54 ± 0.28"},
      {"sequence": "TTTATTTAAAAAGTTTGTACATATATATTATTTTGA [XGTACX_site6040]", "gcPBM binding intensity (ln)": "8.19 ± 0.26"},
      {"sequence": "ATATTATAGTTATGAACATGCAAACATTACGAAATA [TGCATGCA_site54]", "gcPBM binding intensity (ln)": "8.96 ± 0.27"},
      {"sequence": "CATATATAAATATATACACACATACATACATACATA [CACACA_site5988]", "gcPBM binding intensity (ln)": "8.73 ± 0.3"},
      {"sequence": "AAAAAATATTAGACTTATAAAGCATAAAGGATATTA [GTGCAC_negctrl_site588]", "gcPBM binding intensity (ln)": "8.51 ± 0.38"},
      {"sequence": "AATTTATTATTTTATTGTACGTATTTTTTTTTTTAT [XGTACX_site2298]", "gcPBM binding intensity (ln)": "8.75 ± 0.4"},
      {"sequence": "ATAAAAATAAAAAGTGTGCACACAAAAATATATATA [GTGCAC_site9931]", "gcPBM binding intensity (ln)": "9.21 ± 0.41"},
      {"sequence": "AAAAAGAACAGAAACACACAAATAAAATAAAATTGT [CACACA_site6921]", "gcPBM binding intensity (ln)": "8.83 ± 0.44"},
      {"sequence": "AAATGTTAATAAAGGTGTACACAAAATAAAAAAAAT [XGTACX_site463]", "gcPBM binding intensity (ln)": "9.28 ± 0.41"},
      {"sequence": "TTAATTGACATAAAAAGTACTCATATAGATATGCAC [XGTACX_site6391]", "gcPBM binding intensity (ln)": "8.46 ± 0.12"},
      {"sequence": "TAATTTTATTTTATATGTACGCAATACAAATATATA [XGTACX_site8461]", "gcPBM binding intensity (ln)": "8.47 ± 0.17"},
      {"sequence": "CACCCCCACAGACACACACACACACCCATATATATA [CACACA_site364]", "gcPBM binding intensity (ln)": "9.43 ± 0.25"},
      {"sequence": "AAGATTCATTGGTTCTGTACAAAATAAACACTATAA [XGTACX_site834]", "gcPBM binding intensity (ln)": "8.77 ± 0.68"},
      {"sequence": "AATATATATATTTAAGTGCATAATATTGTAATATTA", "gcPBM binding intensity (ln)": "8.54 ± 0.26"},
      {"sequence": "TTACCAAAAAAATGTAGTACAATATAATATTATTTA [XGTACX_site5750]", "gcPBM binding intensity (ln)": "8.73 ± 0.13"},
      {"sequence": "ATATATTATGAAGACTGTACATTTACATGAAAAAAA [XGTACX_site7203]", "gcPBM binding intensity (ln)": "8.66 ± 0.36"},
      {"sequence": "CGAAGGTTTGGCCATGCATGTTATAAGAATATATGT [TGCATGCA_site441]", "gcPBM binding intensity (ln)": "8.92 ± 0.42"},
      {"sequence": "TCATTTTATTATTCTACACACTTATCTATAATTACA [CACACA_site6168]", "gcPBM binding intensity (ln)": "8.74 ± 0.3"},
      {"sequence": "ATTCTATATATGTGCACACAAAAGATATATATATAT [CACACA_site2124]", "gcPBM binding intensity (ln)": "9.93 ± 0.26"},
      {"sequence": "TTACATGTACAAAAGTTGCACTTCATACACTTTTAT", "gcPBM binding intensity (ln)": "8.78 ± 0.33"},
      {"sequence": "TCATTTCAATACACAAGTACGTATATGGTTATATTG [XGTACX_site6021]", "gcPBM binding intensity (ln)": "8.52 ± 0.37"},
      {"sequence": "AATATAAAATAATGCACACATAAACAAAAAATCAAA [CACACA_site1371]", "gcPBM binding intensity (ln)": "8.79 ± 0.36"},
      {"sequence": "TTTCCAAATTGTTGACGGACACTCACGAATAGTTAT [XGTACX_site5720]", "gcPBM binding intensity (ln)": "8.53 ± 0.42"},
      {"sequence": "ACATGAAGATATTTTTGTCCGTACAAATTCATATGA [XGTACX_site1837]", "gcPBM binding intensity (ln)": "8.47 ± 0.33"},
      {"sequence": "CATATGTATATGACTACACACAAGGGTGTACATATA [CACACA_site1164]", "gcPBM binding intensity (ln)": "8.48 ± 0.18"},
      {"sequence": "AGTATATCAAAATACATACACACATTTGTATATACA [CACACA_site2697]", "gcPBM binding intensity (ln)": "8.46 ± 0.41"},
      {"sequence": "GTCCTCATCCACTATGCACACAAAAAAGAAATACAC [CACACA_site9131]", "gcPBM binding intensity (ln)": "9.04 ± 0.29"},
      {"sequence": "TTTTTTTTTTTTTTTTGTACACAAATTTATTGTCTA [XGTACX_site2680]", "gcPBM binding intensity (ln)": "8.32 ± 0.35"},
      {"sequence": "TACGTTATGTTGAATAGTACAATTTGGTGAACAGGT [XGTACX_site1729]", "gcPBM binding intensity (ln)": "8.97 ± 0.39"},
      {"sequence": "ATATATATAATATGTAGTACTTTCCTCTCAAATCAT [XGTACX_site7766]", "gcPBM binding intensity (ln)": "8.66 ± 0.057"},
      {"sequence": "ATCAAAAATATAAAAAATATAAACAATTTATTATCA [CACACA_negctrl_site768]", "gcPBM binding intensity (ln)": "8.12 ± 0.41"},
      {"sequence": "TTTACATCCAAAAACTGTACACTTATTTTATAATTC [XGTACX_site5332]", "gcPBM binding intensity (ln)": "8.6 ± 0.36"},
      {"sequence": "AATAAGTAACAAAATACACACATATATATAATTATA [CACACA_site1837]", "gcPBM binding intensity (ln)": "8.63 ± 0.35"},
      {"sequence": "GAATCATATTTAAACACACATACATATATATATATA [CACACA_site3352]", "gcPBM binding intensity (ln)": "10 ± 0.34"},
      {"sequence": "TTTTTACTATAATTAAAATTAACAAAAGAAAATGAT [GTGCAC_negctrl_site52]", "gcPBM binding intensity (ln)": "8.4 ± 0.35"},
      {"sequence": "AAAAAATACAAGAAATGTACTCAAGCATATATTAAT [XGTACX_site3325]", "gcPBM binding intensity (ln)": "8.7 ± 0.27"},
      {"sequence": "TTCATTATTATTAACATACACACGTGTTATATACAC [CACACA_site4112]", "gcPBM binding intensity (ln)": "8.66 ± 0.41"},
      {"sequence": "TTCATTTTTTAAGCATCACACACGAAAGAACAAAGT [CACACA_site1122]", "gcPBM binding intensity (ln)": "9 ± 0.52"},
      {"sequence": "TTTAATAATATAATGTGTACTTAAAAATTTATATAT [XGTACX_site5821]", "gcPBM binding intensity (ln)": "8.29 ± 0.21"},
      {"sequence": "TCATAAATTAATAATACATGCATAATATTAAAATGT [TGCATGCA_site5]", "gcPBM binding intensity (ln)": "8.83 ± 0.3"},
      {"sequence": "AAAAATATATAAGAGAGTACATAAAATAAATTAATT [XGTACX_site1534]", "gcPBM binding intensity (ln)": "8.61 ± 0.41"},
      {"sequence": "AAATAATATATGAATGCACACAGTAAAAATTAAAGA [CACACA_site2252]", "gcPBM binding intensity (ln)": "8.94 ± 0.35"},
      {"sequence": "AAAATTTCAATAAATACACACATATATATATATATT [CACACA_site1685]", "gcPBM binding intensity (ln)": "8.29 ± 0.3"}
    ]}
  ]
}
